In all, about 310,000 compounds went through this assay and about 14,000 (4.5%) showed an effect of 50% or more. Effects have a minus sign here. The list shows a part of the results. Where a SMILES comes first, the peptide text is derived from it. The star is where a group is joined. Boc = CC(C)(C)OC(=O)*
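Note: peak tail current of the secondary pulse compared with the same well before compound.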

The target of the experiment is human ether-à-go-go-related gene (hERG) potassium channel (human, UniProt Q12809). Briefly: primary screen, population patch clamp on CHO cells stably expressing hERG.
Sequence of human ether-à-go-go-related gene (hERG) potassium channel (Q12809 whole entry, looked up): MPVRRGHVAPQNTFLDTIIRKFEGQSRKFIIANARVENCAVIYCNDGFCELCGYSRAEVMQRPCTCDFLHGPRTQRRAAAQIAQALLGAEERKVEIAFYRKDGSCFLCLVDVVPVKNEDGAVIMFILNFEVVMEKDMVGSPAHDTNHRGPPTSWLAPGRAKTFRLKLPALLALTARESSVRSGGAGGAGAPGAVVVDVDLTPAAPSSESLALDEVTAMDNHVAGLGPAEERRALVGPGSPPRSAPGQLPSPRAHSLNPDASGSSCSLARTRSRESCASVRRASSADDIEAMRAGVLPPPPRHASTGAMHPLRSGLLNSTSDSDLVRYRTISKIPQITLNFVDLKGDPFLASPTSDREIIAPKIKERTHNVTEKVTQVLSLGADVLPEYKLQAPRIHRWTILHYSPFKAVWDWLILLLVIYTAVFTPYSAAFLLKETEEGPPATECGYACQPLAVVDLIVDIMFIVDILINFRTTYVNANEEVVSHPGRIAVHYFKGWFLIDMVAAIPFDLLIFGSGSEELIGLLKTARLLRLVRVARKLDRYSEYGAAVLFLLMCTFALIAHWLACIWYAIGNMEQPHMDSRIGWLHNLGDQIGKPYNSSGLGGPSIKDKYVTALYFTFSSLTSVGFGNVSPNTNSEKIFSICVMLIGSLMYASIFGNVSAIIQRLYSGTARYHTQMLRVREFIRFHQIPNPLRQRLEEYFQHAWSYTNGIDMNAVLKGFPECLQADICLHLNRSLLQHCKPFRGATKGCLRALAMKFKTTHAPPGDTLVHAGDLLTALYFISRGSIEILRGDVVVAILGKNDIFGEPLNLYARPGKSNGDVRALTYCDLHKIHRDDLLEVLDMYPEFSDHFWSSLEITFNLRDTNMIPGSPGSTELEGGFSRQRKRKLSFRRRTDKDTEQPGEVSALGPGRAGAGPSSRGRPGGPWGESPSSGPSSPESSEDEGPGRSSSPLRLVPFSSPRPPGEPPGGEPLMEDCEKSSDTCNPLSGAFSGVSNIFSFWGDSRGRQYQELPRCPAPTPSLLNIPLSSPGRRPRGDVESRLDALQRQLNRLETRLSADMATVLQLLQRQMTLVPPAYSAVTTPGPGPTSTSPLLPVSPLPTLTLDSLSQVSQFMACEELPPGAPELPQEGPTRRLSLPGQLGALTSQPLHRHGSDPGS
`CCOC(=O)Cc1csc2nc(-c3ccccc3)nn12`: the “hERG current change (%, negative = inhibition) at 10uM” value came out at 16.8%.
To `N#C/C(=C\c1ccncc1)c1nc2ccccc2c(=O)[nH]1` belongs 8.11%.
In the case of `CCNc1nc(OCCNC(C)=O)nc(N(C)C)n1` it was 22%; in that of `O=[N+]([O-])C(=C1NCCN1)C(Cl)=C(Cl)Cl`, 25.7%.
In the case of `CCCCOc1ccc(C(O)C(CN2CCOCC2)c2ccccc2)cc1.Cl` (stereo not shown) it was -0.996%; in that of `O=C(NCC(c1ccco1)N1CCc2ccccc2C1)C(=O)Nc1ccccc1` (stereo not shown), 4.12%; in that of `O=C(c1cnn2c(C(F)(F)F)cc(-c3ccc4c(c3)OCO4)nc12)N1CCCCC1`, 1.33%.
As for `CC(C)C1N(C(=O)N2CCOCC2)CCN1S(=O)(=O)c1ccccc1` (stereo not shown), the “hERG current change (%, negative = inhibition) at 10uM” value amounted to 6.8%.
In the case of `O=C(c1ccc(CN2CCc3ccccc3C2)cc1)N1CCN(c2ccccc2)CC1` it was -46.3%; in that of `COc1cc(/C=N\Nc2nncn2N)ccc1OC(C)=O.Cl`, 17.5%; in that of `NS(=O)(=O)c1cccc(NC(=O)CN2CCC(Cc3ccccc3)CC2)c1`, -11.2%.
Turning to `COC(=O)c1c([N+](=O)[O-])c(OC)c(OC)c(OC)c1[N+](=O)[O-]`, the “hERG current change (%, negative = inhibition) at 10uM” value is recorded as 16.3%.
In the case of `COc1cc(OC)c(NC(=O)Cc2ccc(OC)c(S(=O)(=O)N3CCOCC3)c2)cc1Cl` it was 1.06%.
To `CCCCCCO` belongs 26.4%; to `C[C@]12C=CC(=O)C=C1CC[C@@H]1C2=CC[C@]2(C)[C@@H](C(=O)CN3CCN(c4cc(N5CCCC5)nc(N5CCCC5)n4)CC3)CC[C@@H]12.O=C(O)/C=C\C(=O)O`, -10.8%; to `COCCN(C(=O)c1cccc(OC)c1)c1nnc(-c2ccncc2)s1`, -14.1%.
On to `CCCCNC(=O)c1ccc(NS(=O)(=O)c2ccc3[nH]c(=O)[nH]c3c2)cc1`, for which the “hERG current change (%, negative = inhibition) at 10uM” value amounted to 24.4%.
Regarding `S=c1[nH]nc(-c2ccc3ccccc3n2)n1-c1ccc2ncccc2c1`, the “hERG current change (%, negative = inhibition) at 10uM” value worked out at 12.3%.
To `CC(C)OC1CCCC(O)C1CC(=O)O` (stereo not shown) belongs 9.79%; to `O=C(NNc1cccc(Cl)n1)C1CC1`, 37.4%; to `CC(C)COc1ccc(-c2nnc(-c3ccco3)o2)cc1`, -10.6%.
To `CCc1nc(C)cn1S(=O)(=O)c1cc(C)c(OC)cc1C` belongs -3.83%.
On to `CC(NCC#Cc1ccccc1)C(O)c1ccccc1.Cl` (stereo not shown), for which the “hERG current change (%, negative = inhibition) at 10uM” value is given as -1.67%.
On to `CCCn1c(=O)c(/C(N)=N/O)nn(-c2cccc(C(F)(F)F)c2)c1=O`, for which the “hERG current change (%, negative = inhibition) at 10uM” value is listed as 3.48%.
In the case of `CCNC(=S)SCCOc1ccc(C)cc1` it was -7.02%; in that of `Cc1cccc(/C(N)=N/OC(=O)N2CCOCC2)c1`, -13.8%.
Consider `CCOC(=O)c1[nH]c(C)c(C(=O)OCC(=O)Nc2sc3c(c2C#N)CCCCC3)c1C`, for which the “hERG current change (%, negative = inhibition) at 10uM” value amounted to 11.5%.
For the compound `COCCNC(=O)c1ccccc1NC(=O)Cc1ccccc1[N+](=O)[O-]`, the “hERG current change (%, negative = inhibition) at 10uM” value is recorded as 18.3%.
In the case of `O=C(CSc1nc(-c2cccs2)cc(C(F)(F)F)n1)Nc1cc(OCC(F)(F)C(F)F)cc([N+](=O)[O-])c1`, the “hERG current change (%, negative = inhibition) at 10uM” value was found to be 24.6%.
To `COc1ccc(C)cc1S(=O)(=O)N(CC(=O)N1CCCC1)c1ccccc1` belongs -37.9%; to `S=C(Nc1ccc2c(c1)OCO2)N1CCCC1`, 23.3%.
To `Nc1c(-c2ccccc2)cnn1-c1cccc(Cl)c1` belongs -12.3%.
In the case of `COc1ccc(C(=O)Nc2ccc3c(c2)nc(CN2CCCC2)n3C)cc1`, the “hERG current change (%, negative = inhibition) at 10uM” value is -44.4%.
In the case of `CCN(CC)S(=O)(=O)c1cccc(C(=O)OCc2cc(=O)n3nc(C)sc3n2)c1` it was -47.6%; in that of `CSc1nc2ccccc2n1CC(=O)Nc1cc(C(F)(F)F)ccc1N1CCOCC1`, -21.2%; in that of `COc1ccccc1-n1cnc2cc(C(=O)N3CCOCC3)ccc21`, 5.33%.
On to `COc1cccc(/C=C2\SC(=S)NC2=O)c1OS(=O)(=O)c1ccc(NC(C)=O)cc1`, for which the “hERG current change (%, negative = inhibition) at 10uM” value was 15.6%.
To `Nc1ccc(-c2n[nH]c(=O)c3ccccc23)cc1N` belongs -2.76%.
To `Cc1cnc(N)c2c(=O)oc3ccccc3c12` belongs 7.9%.
Turning to `CN(C1=C(N2CCOCC2)C(=O)c2ccccc2C1=O)c1ccccc1`, the “hERG current change (%, negative = inhibition) at 10uM” value is -14.9%.
In the case of `Cc1ccc(-c2sc(C)nc2CC(=O)O)cc1` it was 16%.
On to `COC(=O)C(CC(C)C)NC(=O)C(Cc1ccccc1)NC(=O)C1CCCN1C(=O)OC(C)(C)C` (stereo not drawn) (Boc-Pro-Phe-Leu-OMe; configuration not given here), for which the “hERG current change (%, negative = inhibition) at 10uM” value came to 54.5%.
To `c1ccc(-c2csc(N3CCN(c4ccccn4)CC3)n2)cc1` belongs -1.09%.
In the case of `COc1ccc(NC(=O)COC(=O)c2ccc(OCc3ccccc3Cl)c(OC)c2)c(OC)c1`, the “hERG current change (%, negative = inhibition) at 10uM” value came to 3.47%.
In the case of `Cn1c(N)c(S(=O)(=O)N2CCN(c3ccccc3)CC2)c(=O)n(C)c1=O` it was -0.0444%; in that of `Cc1cc(C)nc(N(C#N)CN2C(=O)c3ccccc3C2=O)n1`, 8.29%.
In the case of `OC(COCc1ccccc1)CN1CCN(c2ccccc2)CC1` (stereo not shown) it was -45.2%; in that of `COc1ccc2c(c1)C=C(CN1CCC(CO)(CCc3ccccc3)CC1)CO2`, -77.1%; in that of `CCCN1CCN(C(=O)CCc2nnc3ccc(N4CCN(c5cccc(OC)c5)CC4)nn23)CC1`, -54.9%.
In the case of `COC(=O)c1ccc(NC(=O)C2CCCN2S(=O)(=O)c2ccc(C)cc2)cc1` (stereo not shown), the “hERG current change (%, negative = inhibition) at 10uM” value is reported as -2.38%.
As for `Cc1nnc(NC(=O)C2CC(=O)N(C(C)c3ccccc3)C2)s1` (stereo not shown), the “hERG current change (%, negative = inhibition) at 10uM” value worked out at 14.3%.
For the compound `O=C(Nc1nc(-c2ccc(S(=O)(=O)N3CCCC3)cc2)cs1)C1COc2ccccc2O1` (stereo not shown), the “hERG current change (%, negative = inhibition) at 10uM” value is given as 13.1%.
`CCCCC(CC)CNC(=O)C(Cc1ccccc1)NS(=O)(=O)c1ccc2c(c1)CCC(=O)N2` (stereo not shown): the “hERG current change (%, negative = inhibition) at 10uM” value is 3.41%.
With `CCCNS(=O)(=O)c1cc(CN2C(=O)c3cccnc3C2=O)ccc1OC`, the “hERG current change (%, negative = inhibition) at 10uM” value was 16.4%.
`Cc1cc(C)c(C#N)c(SCc2ccccc2[N+](=O)[O-])n1`: the “hERG current change (%, negative = inhibition) at 10uM” value worked out at 4.43%.
In the case of `O=C(CSc1cccc[n+]1[O-])Nc1ccccc1Oc1ccccc1`, the “hERG current change (%, negative = inhibition) at 10uM” value was 5.43%.
To `COc1cc(NC(=O)c2cc(-c3ccc(C)cc3)on2)cc(OC)c1OC` belongs 18.8%.
Turning to `C/C(=N/NC(=O)CCC(=O)Nc1cccc(Cl)c1)c1ccc(C)cc1`, the “hERG current change (%, negative = inhibition) at 10uM” value came out at 18.7%.
For `Br.CCC(=O)Nc1nc(C)c(-c2csc(Nc3cccc(O)c3)n2)s1`, the “hERG current change (%, negative = inhibition) at 10uM” value was -27.5%.
To `O=C(CSC(=S)N1CCCCC1)c1ccccc1` belongs 16.1%.
For the compound `O=C(NCCN1CCOCC1)c1cccc(S(=O)(=O)Nc2ccc(F)cc2)c1`, the “hERG current change (%, negative = inhibition) at 10uM” value is -5.27%.
To `CC(=O)Nc1ccc(NC(=O)Cc2sc(C)nc2-c2ccc(C)cc2)cc1` belongs -6.85%.
For the compound `CCOCCCNC(=O)CCc1nnc2n(CCC(C)C)c(=O)c3ccccc3n12`, the “hERG current change (%, negative = inhibition) at 10uM” value is recorded as -22.5%.
In the case of `CCCC1(C(=O)O)NC(c2ccc(OC)cc2O)C2C(=O)N(c3ccc(OC)cc3)C(=O)C21` (stereo not shown) it was 22.1%; in that of `Cc1ccc(-c2cc(C(=O)N3CC(C)OC(C)C3)c3ccccc3n2)o1` (stereo not shown), 5.89%.
To `CCC(C(=O)OCC(=O)Nc1c(Cl)cc(Cl)cc1Cl)c1ccccc1` (stereo not shown) belongs 13.9%; to `Cc1ccc(C)c(OCCC(=O)OCC(=O)N2c3ccccc3NC(=O)C2(C)C)c1`, -6.54%.
As for `CCC1CCCCN1CCCNC(=O)CS(=O)(=O)Cc1nc(-c2cccc(OC)c2)oc1C` (stereo not shown), the “hERG current change (%, negative = inhibition) at 10uM” value is listed as -29.4%.
In the case of `COc1cc(OC)cc(C(=O)Nc2ccccc2N2CCOCC2)c1` it was -47.6%; in that of `COc1ccccc1NC(=O)c1cc(S(=O)(=O)N2CCc3ccccc32)ccc1F`, 15.2%.
In the case of `CCOC(=O)/C(N=Nc1ccc(F)cc1)=C(/O)c1ccc([N+](=O)[O-])cc1`, the “hERG current change (%, negative = inhibition) at 10uM” value stood at 9.15%.
To `Cc1noc(C)c1CSc1nc2ccccc2c(=O)n1-c1ccc(F)cc1F` belongs -8.94%; to `CCN(CC(=O)Nc1ccc(NC(C)=O)cc1)C(=O)c1cccc(S(=O)(=O)N2CCCC2)c1`, 0.775%; to `O=C(Nc1ccc(Oc2cccc(C(F)(F)F)c2)nc1)c1cccs1`, 6.11%.
On to `C=CCNc1nc(Nc2ccc(-c3nc4ccccc4o3)cc2)nc(N2CCOCC2)n1`, for which the “hERG current change (%, negative = inhibition) at 10uM” value came out at 4.46%.
In the case of `NC(=O)CC(NC(=O)Cc1cccc2ccccc12)c1ccc(NCc2ccccc2)c([N+](=O)[O-])c1` (stereo not shown) it was 5.89%; in that of `CC1=C(C(=O)N(C)C)C(c2ccc(N3CCOCC3)cc2)NC(=O)N1` (stereo not shown), 21.1%.
In the case of `CCCCc1ccc(N=N/C(C(=O)Nc2cc(OC)c(NC(C)=O)cc2OC)=C(/C)O)cc1` it was 14.2%; in that of `CCN1C(=O)/C(=C\C(=O)c2cccs2)c2cc(Br)ccc21`, 22.7%.
To `Cc1nccc(-c2ccc3c(c2)OCO3)n1` belongs -1.48%; to `Cc1cccc(OP(N)(N)=O)c1C`, 16.8%; to `COCCN(C(=O)COC(=O)Cc1ccc(Cl)cc1Cl)c1c(N)n(Cc2ccccc2)c(=O)[nH]c1=O`, 7.1%.
For the compound `CCc1ccc([C@@H]2C[C@H]3CN(Cc4ccccc4OC)C(=O)[C@]34CCCN24)cc1`, the “hERG current change (%, negative = inhibition) at 10uM” value is -70.7%.
Consider `CC(C1CCN(Cc2nc(C3CC3)no2)CC1)N1CCOCC1` (stereo not shown), for which the “hERG current change (%, negative = inhibition) at 10uM” value is on record as -2.69%.
To `CC(C)c1nc2n[nH]c(N)c2c2c1CSC(C)(C)C2` belongs -16.2%.
